Among all 3,200 compounds or so, about 75 (2%) showed an effect of 50% or more. Some of the results follow.
Test system: T1, S. aureus MSSA476
T1 construct: MSSA476
Design: species or system S. aureus MSSA476 (TSB) or V. cholerae SAD30 (LB); 384-well bacterial growth screen at 25 uM, OD600 relative to DMSO control
Conditions: relative growth, OD600, TSB; 25 µM; inhibitor

**Q.** `C=CC(=O)N1CCC(C(=O)Nc2cccc(-c3n[nH]c(C)n3)c2)CC1` [2-J09, N-[3-(5-methyl-1H-1,2,4-triazol-3-yl)phenyl]-1-(prop-2-enoyl)piperidine-4-carboxamide] was tested. Which “% of control remaining” value did it give?
**A.** 125.674%

**Q.** How did the “% of control remaining” value turn out when `Cc1ccc(C)c(C=C(C#N)C(=O)Nc2nccs2)c1` [9-N13, 2-cyano-3-(2,5-dimethylphenyl)-N-(1,3-thiazol-2-yl)prop-2-enamide] was run?
**A.** 100.375%

**Q.** `C=CC(=O)NCc1nnc2n1CCCCC2` [3-N07, N-({5H,6H,7H,8H,9H-[1,2,4]triazolo[4,3-a]azepin-3-yl}methyl)prop-2-enamide] was tested. Which “% of control remaining” value did it give?
**A.** 121.202%

**Q.** `O=C(CCl)c1ccc(Cl)c(Cl)c1` [10-L16, 2-chloro-1-(3,4-dichlorophenyl)ethan-1-one] was tested. Which “% of control remaining” value did it give?
**A.** 5%

**Q.** How did the “% of control remaining” value turn out when `O=C(NC1CC1)C1(C(=O)N2CCSSCC2)CCC1` [10-B21, N-cyclopropyl-1-(1,2,5-dithiazepane-5-carbonyl)cyclobutane-1-carboxamide] was run?
**A.** 110.313%

**Q.** How did the “% of control remaining” value turn out when `CC(Cl)C(=O)N1N=C(c2ccc(Cl)cc2)CC1c1ccco1` (centres unmarked) [5-H18, 2-chloro-1-[3-(4-chlorophenyl)-5-(furan-2-yl)-4,5-dihydro-1H-pyrazol-1-yl]propan-1-one] was run?
**A.** 100.546%

**Q.** For `COc1ccc(C=C(C#N)C(=O)NC(C)c2ccccc2)cc1O` (centres unmarked) [8-J18, 2-cyano-3-(3-hydroxy-4-methoxyphenyl)-N-(1-phenylethyl)prop-2-enamide], which “% of control remaining” value is on record?
**A.** 122.158%

**Q.** `CSc1ccccc1NC(=O)CCl` [4-E11, 2-chloro-N-[2-(methylsulfanyl)phenyl]acetamide] was tested. Which “% of control remaining” value did it give?
**A.** 101%

**Q.** With `O=C(CCl)NCCc1ncc(F)cn1` [6-E19, 2-chloro-N-[2-(5-fluoropyrimidin-2-yl)ethyl]acetamide] as the compound, how does the “% of control remaining” value read?
**A.** 88.439%

**Q.** How did the “% of control remaining” value turn out when `CC(C)NC(=O)C(C#N)=Cc1c(Cl)nc2ccccn12` [9-A11, 3-{2-chloroimidazo[1,2-a]pyridin-3-yl}-2-cyano-N-(propan-2-yl)prop-2-enamide] was run?
**A.** 90.7865%

**Q.** For `CC1CN(c2cccc(CN(C)C(=O)C(C)Cl)c2)S(=O)(=O)C1` (centres unmarked) [6-L18, 2-chloro-N-methyl-N-{[3-(4-methyl-1,1-dioxo-1lambda6,2-thiazolidin-2-yl)phenyl]methyl}propanamide], which “% of control remaining” value is on record?
**A.** 90.4878%

**Q.** With `NC(=O)CCN(C(=O)CCl)c1ccc(F)cc1` [5-C03, 3-[2-chloro-N-(4-fluorophenyl)acetamido]propanamide] as the compound, how does the “% of control remaining” value read?
**A.** 83.4244%

**Q.** `N#CC(=Cc1ccc(OC(F)F)cc1)C(=O)N1CCCCC1` [8-J20, 3-[4-(difluoromethoxy)phenyl]-2-(piperidine-1-carbonyl)prop-2-enenitrile] was tested. Which “% of control remaining” value did it give?
**A.** 117.178%

**Q.** For `C=CC(=O)N1CCN(S(=O)(=O)CC)CC1` [3-D20, 1-[4-(ethanesulfonyl)piperazin-1-yl]prop-2-en-1-one], which “% of control remaining” value is on record?
**A.** 89.1598%

**Q.** Which “% of control remaining” value does the source give for `COc1ccccc1NC(=O)C(C#N)=Cc1sccc1C` [9-P19, 2-cyano-N-(2-methoxyphenyl)-3-(3-methylthiophen-2-yl)prop-2-enamide] here?
**A.** 76.7041%

**Q.** How did the “% of control remaining” value turn out when `C=CC(=O)N1CCC(C(=O)Nc2nc3cc(F)c(C)cc3s2)CC1` [2-K15, N-(5-fluoro-6-methyl-1,3-benzothiazol-2-yl)-1-(prop-2-enoyl)piperidine-4-carboxamide] was run?
**A.** 108.616%

**Q.** `C=CC(=O)NC(=O)NCc1ccccc1` [1-I04, 1-benzyl-3-(prop-2-enoyl)urea] was tested. Which “% of control remaining” value did it give?
**A.** 108.308%

**Q.** Which “% of control remaining” value does the source give for `COc1cc(C)c(C=C(C#N)C(=O)Nc2ccc(C)cc2)cc1C(C)C` [9-C04, 2-cyano-3-[4-methoxy-2-methyl-5-(propan-2-yl)phenyl]-N-(4-methylphenyl)prop-2-enamide] here?
**A.** 99.176%

**Q.** For `Cc1cc(C)c(NC(=O)C(C#N)=Cc2cccnc2)c(C)c1` [8-B17, 2-cyano-3-(pyridin-3-yl)-N-(2,4,6-trimethylphenyl)prop-2-enamide], which “% of control remaining” value is on record?
**A.** 93.9419%

**Q.** For `Cc1cc(C(C)(C)C)cc(C)c1CCNC(=O)CCl` [4-A16, N-[2-(4-tert-butyl-2,6-dimethylphenyl)ethyl]-2-chloroacetamide], which “% of control remaining” value is on record?
**A.** 99.4759%

**Q.** `CCOc1cc(C=C(C#N)C(=O)N2CCCC2)cc(Cl)c1O` [8-M06, 3-(3-chloro-5-ethoxy-4-hydroxyphenyl)-2-(pyrrolidine-1-carbonyl)prop-2-enenitrile] was tested. Which “% of control remaining” value did it give?
**A.** 137.095%

**Q.** With `C=CC(=O)N1CCCC(NS(=O)(=O)c2cccc(F)c2)C1` (centres unmarked) [3-G15, 3-fluoro-N-[1-(prop-2-enoyl)piperidin-3-yl]benzene-1-sulfonamide] as the compound, how does the “% of control remaining” value read?
**A.** 112.146%

**Q.** With `C=CC(=O)N(CCO)c1ccc(C(=O)O)cc1` [1-M10, 4-[N-(2-hydroxyethyl)prop-2-enamido]benzoic acid] as the compound, how does the “% of control remaining” value read?
**A.** 117.451%

**Q.** For `CC(Cl)C(=O)N1CCN(C(C)C)c2ccccc2C1` (centres unmarked) [7-O07, 2-chloro-1-[1-(propan-2-yl)-2,3,4,5-tetrahydro-1H-1,4-benzodiazepin-4-yl]propan-1-one], which “% of control remaining” value is on record?
**A.** 99.843%

**Q.** How did the “% of control remaining” value turn out when `CCc1nsc(N2CCN(C(=O)C(C#N)=Cc3ccco3)CC2)n1` [9-K05, 2-[4-(3-ethyl-1,2,4-thiadiazol-5-yl)piperazine-1-carbonyl]-3-(furan-2-yl)prop-2-enenitrile] was run?
**A.** 96.779%

**Q.** For `CC(Cl)C(=O)Nc1ccc([N+](=O)[O-])cc1C(F)(F)F` (centres unmarked) [6-D06, 2-chloro-N-[4-nitro-2-(trifluoromethyl)phenyl]propanamide], which “% of control remaining” value is on record?
**A.** 89.8049%

**Q.** How did the “% of control remaining” value turn out when `CC(Cl)C(=O)N1CCCc2c1ccnc2N(C)C` (centres unmarked) [6-D14, 2-chloro-1-[5-(dimethylamino)-1,2,3,4-tetrahydro-1,6-naphthyridin-1-yl]propan-1-one] was run?
**A.** 108.585%

**Q.** How did the “% of control remaining” value turn out when `C=CC(=O)N1CCC(Cc2noc(C)n2)CC1` [2-G22, 1-{4-[(5-methyl-1,2,4-oxadiazol-3-yl)methyl]piperidin-1-yl}prop-2-en-1-one] was run?
**A.** 99.913%

**Q.** Which “% of control remaining” value does the source give for `C=CC(=O)Nc1cnc(S(C)(=O)=O)c(C)c1` [2-O14, N-(6-methanesulfonyl-5-methylpyridin-3-yl)prop-2-enamide] here?
**A.** 109.661%

**Q.** With `COc1ccc2cc(C=C(C#N)C(=O)Nc3nccs3)ccc2c1` [9-E08, 2-cyano-3-(6-methoxynaphthalen-2-yl)-N-(1,3-thiazol-2-yl)prop-2-enamide] as the compound, how does the “% of control remaining” value read?
**A.** 100.375%

**Q.** For `C=CC(=O)N(C)CC(=O)N1CCC(C)(c2nc(C)no2)CC1` [2-B22, N-methyl-N-{2-[4-methyl-4-(3-methyl-1,2,4-oxadiazol-5-yl)piperidin-1-yl]-2-oxoethyl}prop-2-enamide], which “% of control remaining” value is on record?
**A.** 110.009%

**Q.** How did the “% of control remaining” value turn out when `CN(C)c1nc(N2CCOCC2)ncc1NC(=O)CCl` [5-M22, 2-chloro-N-[4-(dimethylamino)-2-(morpholin-4-yl)pyrimidin-5-yl]acetamide] was run?
**A.** 96.9035%

**Q.** For `C=CC(=O)NCC1CCC2(CCCC2)O1` (centres unmarked) [1-A06, N-({1-oxaspiro[4.4]nonan-2-yl}methyl)prop-2-enamide], which “% of control remaining” value is on record?
**A.** 112.176%

**Q.** For `C=CC(=O)NCc1ncccc1-n1cccn1` [2-N19, N-{[3-(1H-pyrazol-1-yl)pyridin-2-yl]methyl}prop-2-enamide], which “% of control remaining” value is on record?
**A.** 137.511%

**Q.** How did the “% of control remaining” value turn out when `C=CC(=O)N1CCC(C(=O)N2CCCN(c3nccs3)CC2)CC1` [2-L20, 1-{4-[4-(1,3-thiazol-2-yl)-1,4-diazepane-1-carbonyl]piperidin-1-yl}prop-2-en-1-one] was run?
**A.** 104.787%

**Q.** How did the “% of control remaining” value turn out when `CC(C)(CNC(=O)CCl)CC1CCOCC1` [6-C04, 2-chloro-N-[2,2-dimethyl-3-(oxan-4-yl)propyl]acetamide] was run?
**A.** 94.2439%

**Q.** `CNS(=O)(=O)c1cc(NC(=O)CCl)ccc1C` [6-M07, 2-chloro-N-[4-methyl-3-(methylsulfamoyl)phenyl]acetamide] was tested. Which “% of control remaining” value did it give?
**A.** 112.341%

**Q.** How did the “% of control remaining” value turn out when `C=CC(=O)N1CCC(C(=O)N[C@@H](C)c2ccc(Cl)s2)CC1` [3-E22, N-[(1S)-1-(5-chlorothiophen-2-yl)ethyl]-1-(prop-2-enoyl)piperidine-4-carboxamide] was run?
**A.** 107.27%

**Q.** Which “% of control remaining” value does the source give for `C=CC(=O)N1CCOCC1c1noc(C)n1` (centres unmarked) [3-O11, 1-[3-(5-methyl-1,2,4-oxadiazol-3-yl)morpholin-4-yl]prop-2-en-1-one] here?
**A.** 92.9909%

**Q.** Which “% of control remaining” value does the source give for `C=CC(=O)NCc1ccc(C(=O)N2CCOCC2)cc1` [1-L17, N-{[4-(morpholine-4-carbonyl)phenyl]methyl}prop-2-enamide] here?
**A.** 103.736%

**Q.** Which “% of control remaining” value does the source give for `CC(NC(=O)C(C#N)=Cc1cnn(C)c1)c1ccccc1` (centres unmarked) [8-N10, 2-cyano-3-(1-methyl-1H-pyrazol-4-yl)-N-(1-phenylethyl)prop-2-enamide] here?
**A.** 95.9336%

**Q.** How did the “% of control remaining” value turn out when `C=CC(=O)N1Cc2cnn(C)c2C1` [3-P14, 1-{1-methyl-1H,4H,5H,6H-pyrrolo[3,4-c]pyrazol-5-yl}prop-2-en-1-one] was run?
**A.** 91.946%

**Q.** How did the “% of control remaining” value turn out when `Cc1cc(CC(C)NC(=O)C(C)Cl)n(-c2ccccc2)n1` (centres unmarked) [7-H21, 2-chloro-N-[1-(3-methyl-1-phenyl-1H-pyrazol-5-yl)propan-2-yl]propanamide] was run?
**A.** 81.0047%

**Q.** `C=CC(=O)N(C)CC1(O)CCc2ccccc21` (centres unmarked) [3-D11, N-[(1-hydroxy-2,3-dihydro-1H-inden-1-yl)methyl]-N-methylprop-2-enamide] was tested. Which “% of control remaining” value did it give?
**A.** 111.101%

From article PMC11995724, “Antibiotic target discovery by integrated phenotypic and activity-based profiling of electrophilic fragments” (Cell chemical biology, 2025)
